Data: PubChem BioAssay AID720708 (National Center for Advancing Translational Sciences (NCATS), 2013)
Among all 360,000 compounds or so, about 660 (0.18%) were called active. The inconclusive results got no clear call from the source; some entries with a clear call stand among them for comparison. Calls come from the whole dose curve; as a rule, active = well fitted inhibition curve with a large enough effect; inconclusive = small, poorly fitted or top-dose-only effect; inactive = no such curve, though single readings can be large or run the other way. Potencies of inconclusive entries are left out as doubtful fits.

The molecules below were run against Rap guanine nucleotide exchange factor 4 (Homo sapiens) (UniProt Q8WZA2) (assay: qHTS for Antagonist of cAMP-regulated guanine nucleotide exchange factor 2 (EPAC2): primary screen). Details: EPAC2 GEF exchange of Rap1B-BODIPY-GDP, fluorescence; series mostly up to 114 µM.
Chain of UniProt Q8WZA2 (Q8WZA2 whole entry, looked up): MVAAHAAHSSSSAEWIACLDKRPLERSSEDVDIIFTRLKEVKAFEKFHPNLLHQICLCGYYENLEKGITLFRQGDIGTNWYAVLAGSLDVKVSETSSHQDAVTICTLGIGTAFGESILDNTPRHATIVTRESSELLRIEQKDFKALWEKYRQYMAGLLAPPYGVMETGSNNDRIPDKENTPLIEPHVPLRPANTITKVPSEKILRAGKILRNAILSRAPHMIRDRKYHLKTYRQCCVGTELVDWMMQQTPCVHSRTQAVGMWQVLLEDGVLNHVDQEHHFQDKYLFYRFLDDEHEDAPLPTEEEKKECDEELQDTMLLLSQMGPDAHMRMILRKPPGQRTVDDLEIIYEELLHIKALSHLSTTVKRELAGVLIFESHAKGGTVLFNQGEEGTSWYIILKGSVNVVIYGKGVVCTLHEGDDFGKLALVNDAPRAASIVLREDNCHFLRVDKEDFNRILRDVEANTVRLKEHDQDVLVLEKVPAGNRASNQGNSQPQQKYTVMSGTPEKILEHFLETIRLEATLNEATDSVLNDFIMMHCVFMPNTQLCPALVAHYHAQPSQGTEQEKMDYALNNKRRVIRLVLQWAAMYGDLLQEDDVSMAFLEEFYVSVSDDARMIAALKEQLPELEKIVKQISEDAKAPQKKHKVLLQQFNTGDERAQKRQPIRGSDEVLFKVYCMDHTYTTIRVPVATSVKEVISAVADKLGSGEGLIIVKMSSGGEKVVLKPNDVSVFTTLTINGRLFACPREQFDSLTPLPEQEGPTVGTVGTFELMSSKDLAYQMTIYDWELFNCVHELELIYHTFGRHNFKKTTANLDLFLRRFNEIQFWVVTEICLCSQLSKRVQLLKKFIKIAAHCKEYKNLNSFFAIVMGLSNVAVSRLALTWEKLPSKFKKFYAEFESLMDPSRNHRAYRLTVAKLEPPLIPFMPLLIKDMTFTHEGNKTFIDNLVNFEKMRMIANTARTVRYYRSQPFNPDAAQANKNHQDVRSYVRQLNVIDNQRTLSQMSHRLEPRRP
Note: nearly all actives have a fitted effect of over 45% in size.
Potency is the fitted concentration of half-maximal effect; tags give direction and shape of the fitted curve.

SMILES	Potency
Cc1ccc(OCCn2c(=S)[nH]c3ccccc32)c(C(C)C)c1	inconclusive [inhibitor, partial curve]
COc1cccc(-c2nc3nc(C)cc(C)n3c2NC2CCCCC2)c1	inconclusive [inhibitor, full curve, poor fit]
O=C(O)C(Cc1ccc(O)cc1)N1C(=O)c2c(Cl)c(Cl)c(Cl)c(Cl)c2C1=O (centres undefined)	inconclusive [inhibitor, partial curve]
CC(=O)Oc1c(/C=C(\C#N)C(N)=O)[nH]c2ccccc12	inconclusive [inhibitor, partial curve]
CN(Cc1cccc(F)c1)C(=O)C1CC(=O)N(c2ccc3c(c2)OCCO3)C1 (centres undefined)	inconclusive [inhibitor, partial curve]
O=C(CCC(=O)N1CCSc2ccccc21)NCc1cccc(Cl)c1	inconclusive [inhibitor, full curve]
Cc1cc(C)c(C#N)c(Oc2ccc(F)cc2)n1	inactive
Cc1sc(NC(=O)c2ccco2)c(C(c2cccnc2)N2CCCC2)c1C (centres undefined)	inconclusive [inhibitor, partial curve]
O=C(COc1ccc(F)cc1Br)Nc1ccccc1N1CCCC1	inconclusive [inhibitor, full curve, poor fit]
CCCCN1C(=O)/C(=C/C=C2/CC(C)(C)CN2C)SC1=S	inactive
C[C@H]1CN([C@@H](C)CO)C(=O)c2cccc(NC(=O)C3CC3)c2O[C@H]1CN(C)S(=O)(=O)c1ccccc1	inconclusive [inhibitor, single point]
O=C(NC1CCCC1)c1cccc2c1C(=O)c1ccc(N3CCCCC3)cc1S2(=O)=O	inactive
CCOC(=O)c1c(Cc2ccc(Cl)cc2)c[nH]c1C	inconclusive [inhibitor, full curve]
CCCCOC(=O)C1=C(C)Nc2nnnn2C1c1ccccc1Cl (centres undefined)	inconclusive [inhibitor, full curve]
CCNC(=O)C1CCCN(C(=O)c2ccc(C(F)(F)F)cc2)CC1 (centres undefined)	inactive
O=C(O)c1ccn2c(C(=O)c3ccc(Cl)cc3)c(-c3ccccc3)cc2c1	inconclusive [inhibitor, partial curve]
O=C1[C@H](Cc2ccccc2)NCC=CC[C@@H](c2ccc(Cl)cc2)N1Cc1ccc(Cl)cc1	inconclusive [inhibitor, partial curve]
CCN(CC)C(=O)C(Sc1nnnn1-c1ccc(O)cc1)c1ccccc1 (centres undefined)	inconclusive [inhibitor, partial curve]
O=[N+]([O-])/C=C/c1cn(Cc2ccc(Cl)cc2)c2ccccc12	inactive
c1ccc(CN2CC[C@@H](Nc3nccn4ccnc34)C2)cc1	inactive
Cc1c(-n2cc(C(=O)c3cc(F)ccc3O)cc(C#N)c2=O)c(=O)n(-c2ccccc2)n1C	inactive
O=C(Cn1cc(COc2ccc3ccccc3c2)nn1)NS(=O)(=O)c1cccc(OC(F)F)c1	inconclusive [inhibitor, full curve]
Cc1onc(-c2ccccc2)c1C(=O)N1CCN(c2ccccc2F)CC1	inconclusive [inhibitor, partial curve]

SMILES	Potency
C[N+]1=C(/C=C/Nc2ccccc2Cl)C(C)(C)c2ccccc21	inactive
CC[n+]1c(/C=C/N(C)c2ccccc2)oc2ccc(Cl)cc21	inactive
Cc1cc(O)c(C(=O)/C=C/c2cccc([N+](=O)[O-])c2)c(=O)o1	inactive
COc1ccc(S(=O)(=O)NNC(=O)c2cccs2)cc1	inactive
Cc1ccc(S(=O)(=O)Nc2ccc(Nc3nccn4c(-c5ccc6ccccc6c5)cnc34)cc2)cc1	inactive
Cc1ccccc1-n1cc(-c2ccc(Br)cc2)nc1SCC(N)=O	inconclusive [inhibitor, single point]
Cc1ccc(-c2nc3ccc(C)cn3c2CC2CCCCC2)cc1	inconclusive [inhibitor, full curve]
COc1ccc2cc(C3CC=C(CO)CN3S(=O)(=O)c3ccccc3[N+](=O)[O-])n(C(=O)OC(C)(C)C)c2c1 (centres undefined)	inconclusive [inhibitor, partial curve]
CC1C=CC(C)C(C(=O)O)C1C(=O)O (centres undefined)	inconclusive [inhibitor, partial curve]
COc1cc2ccccc2cc1C(=O)N(CCN(C)C)c1nc2c(F)cccc2s1	inconclusive [inhibitor, partial curve]
C=CCn1c(C)nc2c(cnn2-c2ccccc2)c1=O	inconclusive [inhibitor, single point]
COc1ccc(NC(=O)c2c[nH]n3c(=O)cc(C4CCN(C(=O)OC(C)(C)C)CC4)nc23)cc1Cl	inconclusive [inhibitor, partial curve]
O=C(/C=C/c1cccnc1)c1cccc(O)c1	inactive
CN(C)c1ccc(-c2nnn(Cc3ccccc3Br)n2)cc1	inactive
COc1ccc(-n2nnnc2C(c2ccccc2OC(F)(F)F)N2CCN(C/C=C/c3ccccc3)CC2)cc1 (centres undefined)	inconclusive [inhibitor, single point]
Cn1ccc2c(N(c3ccccc3)C3CCCCC3)cc3c(c21)C1CCC3O1 (centres undefined)	inconclusive [inhibitor, full curve]
Cc1cc(C)n2nc(SCC(=O)NC3(C#N)CCCCC3)nc2n1	inactive
S=C(NC1CCCC1)N1CCOCC1	inconclusive [inhibitor, partial curve, poor fit]
Cc1ccc(Nc2nc3nonc3[nH]c2=O)cc1Cl	inconclusive [inhibitor, partial curve]
CCOC(=O)Cn1c(CN2CCN(c3cccc(Cl)c3)CC2)nc2c1c(=O)[nH]c(=O)n2C	inconclusive [inhibitor, single point]
COc1ccc(NS(=O)(=O)c2ccc3c(c2)NC(=O)CCS3)cc1Cl	inconclusive [inhibitor, partial curve]
Cc1ccc(C(=O)COC(=O)C(C)N2C(=O)C3C4C=CC(C4)C3C2=O)cc1 (centres undefined)	inconclusive [inhibitor, single point]
COc1cccc(S(=O)(=O)Nc2ccc3c(c2)[C@@H]2C[C@@H](CC(=O)NCc4ccc(Cl)cc4)O[C@@H](CO)[C@@H]2O3)c1	inconclusive [inhibitor, single point]

SMILES	Potency
CCCN(CCC)Cc1cc(=O)oc2cc3c(cc12)CCC3	inconclusive [inhibitor, partial curve]
COCCNc1nc(Oc2cccc(F)c2)c2sccc2n1	inconclusive [inhibitor, partial curve]
c1ccc(N2CCN(c3ccccc3)C2c2cccs2)cc1	inactive
Cc1ccc(N2CCN(C(=O)C(=O)c3ccc(F)c(F)c3)CC2)cc1	inconclusive [inhibitor, partial curve]
O/N=C/c1ccc(OCc2ccccc2)c(Cl)c1	inactive
C/C(=N\Nc1nc2ccccc2[nH]1)c1ccc2c(c1)OCO2	inactive
COc1cc(OC)nc(Oc2cc(/C=N/O)ccc2OC)n1	inconclusive [inhibitor, full curve]
CCN(CC)CC#CC(OC)(c1ccccc1)c1ccccc1	active: 39.8 µM
COc1ccc(C(=O)NCCNc2nc3c(C)cccc3cc2C#N)cc1OC	inconclusive [inhibitor, single point]
COc1cnc(-c2ccccn2)nc1Oc1cccc(Cl)c1	inconclusive [inhibitor, partial curve]
C[C@H](CO)N1C[C@H](C)[C@@H](CN(C)Cc2ccc3c(c2)OCO3)Oc2cc(Br)ccc2S1(=O)=O	inconclusive [inhibitor, partial curve]
Cc1cc(Oc2ccc(Br)cc2)nc(SCC(=O)c2ccccc2)n1	inactive
Nc1ccc(C(=O)Nc2ccc3nc(-c4ccncc4)[nH]c3c2)cc1	inconclusive [inhibitor, single point]
CCOC(=O)c1cnc2ccc(C)cc2c1N(C)Cc1ccccc1	inconclusive [inhibitor, full curve]
Cc1ccc(S(=O)(=O)NCCC(=O)N2CCC(Cc3ccccc3)CC2)cc1	inactive
CCOC(=O)C1(C)Oc2ccccc2C(c2ccc(OC)cc2)=C1C(=O)OC (centres undefined)	inconclusive [inhibitor, full curve]
Cc1ccc(CNC(=O)c2ccc3c(=O)[nH]c4c(C(=O)NCC5CCCO5)sc(=S)n4c3c2)cc1 (centres undefined)	inconclusive [inhibitor, single point]
CCCNC(=O)C1(C)CCCN(Cc2ccc(-c3ccccc3)o2)C1 (centres undefined)	inconclusive [inhibitor, partial curve]
Cc1ccc(O)c(Cc2cc(C)cc(Cc3cc(C)ccc3O)c2O)c1	inconclusive [inhibitor, single point]
COC(=O)c1cn(C(=O)c2ccc(C)c(C)c2)c2ccccc12	inconclusive [inhibitor, partial curve]
CCc1nc2c(OCc3ccc(OC(F)F)cc3)cccn2c1N(C)C(=O)c1cccs1	inconclusive [inhibitor, full curve]
N/C(=N\OC(=O)c1cccc(Br)c1)c1ccncc1	inactive
Cc1cc(S(=O)(=O)Nc2ccc3cn[nH]c3c2)c(C)cc1Cl	inconclusive [inhibitor, single point]
